The supplement of paper PMC10126150
Values marked as one replicate rest on one cluster of the flow cell; about a third of the high ones do not repeat.
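Note: ATP exposure 15 min at 22 °C before imaging.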

What follows are sequences tested on ATP (assay: switch fluorescence ratio, 500 uM ATP over buffer (Cy3 cluster intensity, sum of 5 cycles each) (fold (ratio)); higher = stronger signal-on switching upon ATP binding; sequences stand for … in TCGTCGGCAGCGTCAGATGTGTATAAGAGACAGTTTTTTTTTTTTTTTTTTTTTTTTT…TC). Details: aptamer strand: ATP DNA aptamer (quencher-CACCTGGGGGAGTATTGCGGAGGAAGG + anchor), 100 nM annealed; ATP concentration: 500 uM; one replicate.
Method in brief: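 Cy3-labelled switching-strand clusters on a modified Illumina MiSeq flow-cell were annealed to 100 nM quencher-labelled ATP aptamer, imaged in selection buffer, then imaged after 15 min with 500 uM ATP at 22 °C. Five buffer/ATP cycles ran, with NaOH stripping and re-annealing between them. The fluorescence ratio is summed target-cycle over summed buffer-cycle Cy3 intensity per cluster, averaged per switch-domain sequence. Clusters outside 100-1000 RFU were excluded.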
CCGCTCGGAG was tested, and the switch fluorescence ratio was 1.33. With CCGCTCTCAG the switch fluorescence ratio was 1.68. In the case of CCGCTCTGGG, the switch fluorescence ratio was 1.18. In the case of CCGCTGTTGT, the switch fluorescence ratio was 1.42. CCGCTTGTGG was tested, and the switch fluorescence ratio was 1.09. In the case of CCGCTTTTGG, the switch fluorescence ratio was 1.52. In the case of CCGGACCCGG, the switch fluorescence ratio was 1.07. Sequence CCGGACCGCC has a switch fluorescence ratio of 1.79. Sequence CCGGACCTGT has a switch fluorescence ratio of 0.985. CCGGACGAAT gave a switch fluorescence ratio of 1.25. CCGGACTCCG gave a switch fluorescence ratio of 2.92. CCGGAGCTCG was tested, and the switch fluorescence ratio was 2.81. Work on CCGGATGCGC yielded a switch fluorescence ratio of 1.75. CCGGCACCGT gave a switch fluorescence ratio of 1.05. Work on CCGGCAGCG yielded a switch fluorescence ratio of 0.978. Work on CCGGCAGCTA yielded a switch fluorescence ratio of 6.11. CCGGCCATTT was tested, and the switch fluorescence ratio was 1.08. In the case of CCGGCGAGCT, the switch fluorescence ratio was 1.06. Work on CCGGCGGGCG yielded a switch fluorescence ratio of 0.976. Work on CCGGGAAAGT yielded a switch fluorescence ratio of 0.974. Work on CCGGGAATAT yielded a switch fluorescence ratio of 2.42. CCGGGAATGA gave a switch fluorescence ratio of 1.08. CCGGGAGCGG gave a switch fluorescence ratio of 1.07. In the case of CCGGGGACT, the switch fluorescence ratio was 1.43. CCGGGTAGTG showed a switch fluorescence ratio of 1.03. CCGGGTCGAG showed a switch fluorescence ratio of 1.01. CCGGGTCTCC gave a switch fluorescence ratio of 1.2. In the case of CCGGGTGCAT, the switch fluorescence ratio was 1.94. For CCGGGTTCCT, the switch fluorescence ratio was 1.02. With CCGGTAGCAG the switch fluorescence ratio was 3.67. For CCGGTATTTT, the switch fluorescence ratio was 1.01. CCGGTCGGTT was tested, and the switch fluorescence ratio was 1.02. Sequence CCGGTTATGT has a switch fluorescence ratio of 1.19. For CCGGTTGAAA, the switch fluorescence ratio was 1.13. CCGTACCAGG showed a switch fluorescence ratio of 4.98. For CCGTAGAGAT, the switch fluorescence ratio was 3.24. With CCGTAGTATG the switch fluorescence ratio was 2.37. In the case of CCGTAGTGTT, the switch fluorescence ratio was 2.05. Work on CCGTAGTTAT yielded a switch fluorescence ratio of 3.21. Sequence CCGTATTCCG has a switch fluorescence ratio of 1.13. In the case of CCGTCCGAA, the switch fluorescence ratio was 0.978. Work on CCGTCCGTTG yielded a switch fluorescence ratio of 1.54. CCGTCCTCAT gave a switch fluorescence ratio of 1.41. For CCGTCGCCTG, the switch fluorescence ratio was 0.987. CCGTCGGGGG was tested, and the switch fluorescence ratio was 0.997. In the case of CCGTCGTCTT, the switch fluorescence ratio was 1.06. CCGTCTACAA gave a switch fluorescence ratio of 1.47. CCGTCTACCA gave a switch fluorescence ratio of 1.07. With CCGTCTCACT the switch fluorescence ratio was 1.02. For CCGTCTGGCA, the switch fluorescence ratio was 1.07. In the case of CCGTGGCATC, the switch fluorescence ratio was 4.9. With CCGTGGTGTT the switch fluorescence ratio was 1.15. CCGTGTAATG showed a switch fluorescence ratio of 1.27. For CCGTGTCCGG, the switch fluorescence ratio was 0.998. CCGTGTTAGG showed a switch fluorescence ratio of 0.986. In the case of CCGTTAGAGC, the switch fluorescence ratio was 1.15. For CCGTTAGTG, the switch fluorescence ratio was 1.01. With CCGTTCGTAT the switch fluorescence ratio was 1.2. In the case of CCGTTGGTT, the switch fluorescence ratio was 1. Work on CCGTTTGTAT yielded a switch fluorescence ratio of 1.01. CCTAAACAGT was tested, and the switch fluorescence ratio was 1.09. Sequence CCTAAAGGTC has a switch fluorescence ratio of 1.03. Work on CCTAACATCA yielded a switch fluorescence ratio of 1.05. Sequence CCTAACCCTG has a switch fluorescence ratio of 1.05. CCTAACTAG gave a switch fluorescence ratio of 0.984. In the case of CCTAAGCCAT, the switch fluorescence ratio was 1.95. For CCTAAGGTCT, the switch fluorescence ratio was 1.05. In the case of CCTAATAGTG, the switch fluorescence ratio was 0.996. For CCTAATTGGT, the switch fluorescence ratio was 0.98. CCTACATCAG showed a switch fluorescence ratio of 1.05. With CCTACCAACT the switch fluorescence ratio was 1.94. CCTACCTGCC showed a switch fluorescence ratio of 2.59. For CCTACGTGGG, the switch fluorescence ratio was 1.37. For CCTACTTTCA, the switch fluorescence ratio was 0.968. CCTAGACCCG gave a switch fluorescence ratio of 1.04. In the case of CCTAGGGGCT, the switch fluorescence ratio was 1.09.
